# Measured values from PubChem BioAssay AID1346428 (National Center for Advancing Translational Sciences (NCATS), 2018).
# Among all 48,000 compounds or so, about 1,200 (2.5%) were called active. Another 2% or so got no clear call; they are omitted.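 How the source made its calls: active means activation of at least 60% and not above a set upper limit (about 1 call in 100 departs from these limits); inconclusive means activation of 40% to 60%, or above that upper limit; inactive means activation under 40%.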 This is one part of the list.
# Biological target: Probable G-protein coupled receptor 32 (Homo sapiens) (UniProt O75388)
# Test: qHTS for Agonists of Human Resolvin D1 Receptor DRV1
# Conditions: CHO-K1 GPR32 beta-arrestin PathHunter luminescence, 90 min; at 76.9 µM; active compounds read high; zero percent set by DMSO-only wells
# Procedure, shortened: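 Beta-arrestin recruitment read-out: luminescence from complemented beta-Gal in CHO-K1 GPR32 PathHunter cells, measured 1 h after detection reagent at ambient temperature following 90 min compound exposure at 37 °C; DMSO served as basal (EC0) control.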
# Sequence of UniProt O75388 (O75388 whole entry, looked up): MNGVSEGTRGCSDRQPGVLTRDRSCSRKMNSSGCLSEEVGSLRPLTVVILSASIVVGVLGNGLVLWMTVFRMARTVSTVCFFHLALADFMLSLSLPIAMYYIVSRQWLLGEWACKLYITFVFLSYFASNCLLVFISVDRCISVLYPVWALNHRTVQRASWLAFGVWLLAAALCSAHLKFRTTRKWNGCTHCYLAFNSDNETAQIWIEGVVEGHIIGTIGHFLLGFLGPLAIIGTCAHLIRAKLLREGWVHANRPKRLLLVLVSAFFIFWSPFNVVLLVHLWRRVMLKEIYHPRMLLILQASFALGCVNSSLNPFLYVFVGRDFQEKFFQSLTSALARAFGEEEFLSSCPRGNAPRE
row,Compound,activation
1,CC(C)c1ccc(NC(=O)c2cnc3sc(N4CCCC4)nn3c2=O)cc1,inactive: -4.75%
2,CCOc1ccccc1CNC(=O)c1cc2c(=O)n(Cc3ccco3)ccc2nc1C,inactive: -9.57%
3,COc1ccc(OC)c(-c2csc(-c3c(N)c(C(=O)c4ccc(Cl)cc4)n4ccccc34)n2)c1,inactive: 10.3%
4,CCOc1cc(CNC(=O)NC2COc3ccccc3C2)cc(OCC)c1OCC (centres undefined),inactive: -14.1%
5,Cc1ccc(OCC(=O)Nc2nnc(SCc3cc(=O)n4cccc(C)c4n3)s2)cc1,inactive: -7.71%
6,COc1cc(NC(=O)CN2CCCN(S(=O)(=O)c3ccc(F)cc3)CC2)cc(OC)c1,inactive: 11%
7,O=C(Nc1ccccc1Br)c1cc(S(=O)(=O)NC2CCCCC2)ccc1F,inactive: -31.5%
8,C=CCc1cccc2cc(-c3nc4ccc(C(=O)O)cc4[nH]3)c(=O)oc12,inactive: 16.1%
9,Cc1ccc2nc(-c3ccc(NC(=O)COc4ccccc4C(C)(C)C)cc3)sc2c1,inactive: 8.28%
10,CCOC(=O)c1cc(S(=O)(=O)Nc2c(C)cc(C)cc2C)[nH]n1,inactive: -15.5%
11,CCOCCCNC(=O)c1ccc(Cn2c(=O)c3cccn3c3cccnc32)cc1,inactive: -2.35%
12,Cc1ccc(C)c(NC(=O)C2CCCN2S(=O)(=O)c2ccc3c(c2)n(C)c(=O)c(=O)n3C)c1 (centres undefined),inactive: -8.59%
13,COc1ccc(C2C(C(=O)Nc3cccnc3)=C(C)Nc3nc(SCc4ccccc4)nn32)cc1 (centres undefined),inactive: 0.433%
14,CCOC(=O)N1CCN(c2ncc3c(n2)CC(c2ccc(Cl)cc2)CC3=O)CC1 (centres undefined),inactive: 11.1%
15,CC(=O)NC(C)c1nc2ccccc2n1Cc1ccccc1Cl (centres undefined),inactive: -16.8%
16,COc1ccc(-c2noc(-c3cc(-c4ccc(F)cc4)n[nH]3)n2)cc1,inactive: 15.2%
17,O=C(NCc1ccc(F)cc1)c1nnc(Cc2cccc(F)c2)o1,inactive: -2.55%
18,CCOc1ccc(NC(=O)Nc2cc3c(cc2N2CCCCC2)n(C)c(=O)n3C)cc1,active: 107%
19,CCOC(=O)CCCCN(Cc1ccccc1F)S(=O)(=O)c1ccc(F)c(C(=O)Nc2cc(Cl)cc(Cl)c2)c1,inactive: -23.3%
20,COc1cc(-c2noc(-c3ccc(NC4CCCC4)c([N+](=O)[O-])c3)n2)cc(OC)c1OC,inactive: -14.7%
21,CN(c1ccc(F)cc1)S(=O)(=O)N1CCCC(C(=O)NCCc2ccccc2)C1 (centres undefined),inactive: -5.88%

row,Compound,activation
1,COc1ccc(C2=NC(C)(C)N(CC(=O)Nc3cc(OC)cc(OC)c3)C2=O)cc1,inactive: -25.6%
2,Cc1ccc(-c2cc3nccc(-c4cc([N+](=O)[O-])ccc4O)n3n2)cc1,inactive: -42.8%
3,CCN1CCN(c2cc(C)c3cc(NC(=O)/C=C/c4cccc(OC)c4OC)ccc3n2)CC1,inactive: -14.7%
4,CCCOc1ccc(-c2nc3ccc(Br)cc3c(=O)o2)cc1,inactive: 18.4%
5,CCCCNC(=O)CSc1nc2n[nH]c(C)c2c(=N)n1-c1cccc(C)c1,inactive: -12.7%
6,CCOC(=O)C1CCN(C(=O)c2ccc3c(c2)sc2nc(-c4ccc(OC)cc4)cn23)CC1,inactive: -0.0722%
7,CCOc1ccc(S(=O)(=O)NCc2nc3cccnc3n2Cc2ccccc2OC)cc1,inactive: -20.1%
8,Cc1c(C(=O)OC2CCCCCC2)[nH]c2c1C(=O)CC(c1ccccc1)C2 (centres undefined),active: 78.6%
9,Cc1nc2ccc(S(=O)(=O)NC(CC(C)C)C(=O)NCc3ccc(Cl)cc3)cc2s1 (centres undefined),inactive: -13.1%
10,CCCc1nnc(NC(=O)Cc2coc3c(C)c(C)ccc23)s1,inactive: -0.0309%
11,Cc1cccc(OCC(=O)Nc2ccc3c(c2)nc(CN2CCCCC2)n3C)c1,inactive: 7.19%
12,Cc1ccc(-n2ncc3c(N4CCN(Cc5ccccc5)CC4)ncnc32)cc1Cl,inactive: 16.4%
13,CCc1cc(=O)[nH]c(SCc2nc(-c3cccc(Cl)c3)no2)n1,inactive: 7.47%
14,CC(C)c1ccc(NC(=O)C2CCCN2S(=O)(=O)c2ccc3nc(-c4ccccc4)[nH]c3c2)cc1 (centres undefined),inactive: -0.0263%
15,O=C(COCc1cc(-c2cccs2)on1)NCc1ccc(F)cc1,inactive: -8.63%
16,O=C(Nc1ccc(Cl)cc1)c1ccc(-n2cnnc2)cc1,inactive: -7.7%
17,CCOCCCn1c(SCC(=O)Nc2ccc(CC)cc2)nc2ccccc2c1=O,inactive: -24.7%
18,COc1ccc(C(=O)N(Cc2sccc2C)C2CCS(=O)(=O)C2)cc1 (centres undefined),inactive: -13.3%
19,COc1cc(NC(=O)Cn2ccc3ccccc3c2=O)cc(OC)c1OC,inactive: 21.8%
20,Cc1ccc(-n2ncc(C(=O)NCCN3CCN(C)CC3)c2C2CCN(C(=O)OC(C)(C)C)CC2)cc1,inactive: 0.0845%
21,CCc1ccc(C2C(C(=O)Nc3ccccc3OC)=C(C)Nc3nc(SCc4ccccc4)nn32)cc1 (centres undefined),inactive: -2.38%

row,Compound,activation
1,CCOc1ccc(CNC(=O)CN2N=C(c3ccccc3)CCC2=O)cc1OC,inactive: -19.5%
2,Cc1ccc(CNC(=O)CSc2nc3ccsc3c(=O)n2-c2ccc(Br)cc2)cc1,inactive: -13.2%
3,Cn1c(C(=O)NCCc2ccccc2)cc2sc(Cl)cc21,inactive: -8.16%
4,Cc1nc(C)c(-c2ccc(SCC(=O)Nc3cccc(C)c3C)nn2)s1,inactive: -7%
5,CCCc1ccc(NC(=O)C2CCCN(c3cnccn3)C2)cc1 (centres undefined),inactive: -0.657%
6,CCOc1cc(CNC(=O)Cn2ncn3c(cc4cc(F)ccc43)c2=O)cc(OCC)c1OCC,inactive: 21%
7,CCc1ccc(NC(=O)C2CCN(S(=O)(=O)c3cccc(-c4noc(C)n4)c3)CC2)cc1,inactive: -9.39%
8,Cc1ccc(Cn2c(CNC(=O)c3ccc(Cl)c([N+](=O)[O-])c3)nc3cccnc32)cc1,inactive: -25.3%
9,Cc1ccccc1C(=O)NNc1ncnc2c1cnn2-c1cccc(Cl)c1,inactive: -0.92%
10,CC(=O)c1ccc(NC(=O)CC2Nc3cc(C)c(C)cc3NC2=O)cc1 (centres undefined),inactive: -15.3%
11,Cc1noc(C)c1S(=O)(=O)N(CC(=O)NCCc1ccc(Cl)cc1)c1ccc(C(C)C)cc1,inactive: 1.79%
12,CCC1Oc2ccc(C)cc2N(CC(=O)N2CCN(c3ccccc3OC)CC2)C1=O (centres undefined),inactive: -12.2%
13,COc1cccc(-c2oc3ccc(C)cc3c(=O)c2O)c1,inactive: -4.77%
14,CCOc1ccc(Nc2nc(C)c(NC(=O)c3cccc(F)c3)c(Nc3ccc(OCC)cc3)n2)cc1,inactive: -32.7%
15,Cc1ccc(NC(=O)CSc2nc3c(sc4ccccc43)c(=O)n2CCCC(=O)NC2CCCC2)cc1C,inactive: -7.07%
16,COc1cccc(CNC(=O)c2cc3c(=O)n(Cc4cccnc4)ccc3nc2C)c1,inactive: 1.61%
17,COc1ccc(C(=O)Nc2nnc(S(=O)(=O)N3CCN(c4ccc(F)cc4)CC3)s2)cc1,inactive: -0.186%
18,COc1ccc(C(=O)Nc2nnc(S(=O)(=O)N(C)c3ccc(C)cc3)s2)cc1,inactive: -6.02%
19,CCc1cccc(NC(c2ccccc2)c2nnc(-c3ccccc3F)o2)c1 (centres undefined),inactive: -34.1%
20,COc1ccccc1CNC(=O)CN(c1ccccc1OC)S(C)(=O)=O,inactive: -8.99%
21,CC(=O)Nc1ccc(OCC(O)CNC(C)C)cc1 (centres undefined),inactive: -70.6%

row,Compound,activation
1,CCOC(=O)c1c(C)[nH]c(C)c1S(=O)(=O)N1CCCC(C(=O)NCc2ccccc2Cl)C1 (centres undefined),inactive: -0.499%
2,Cc1ccc2oc(-c3cc(NC(=O)CC(C)C)ccc3Cl)nc2c1,inactive: 14.5%
3,CCCc1cc(=O)oc2c(C)c3c(cc12)CN(CCc1ccc(Cl)cc1)CO3,inactive: -25.7%
4,CCC(C)NC(=O)Cn1c(=O)n(-c2ccc(OC)c(OC)c2)c(=O)c2ccccc21 (centres undefined),inactive: 2.95%
5,Cc1ccc2c(c1)Cc1c(nc(-c3ccc(F)cc3)nc1SCC(=O)N1CCCCC1)O2,inactive: -1.31%
6,Cc1ccc(Nc2c(-c3cccnc3)nc3ccc(Cl)cn23)cc1,inactive: -16.7%
7,CCOC(=O)C1CCN(C(=O)c2c(C)nn(-c3ccc(F)cc3)c2-n2cccc2)CC1,inactive: -5.55%
8,COc1ccc2cc(CCNS(=O)(=O)c3ccc(C)cc3)c(=O)[nH]c2c1,inactive: 0.159%
9,COc1ccccc1N1CCN(C(=O)CCS(=O)(=O)c2cc(Br)cc3c2N(C(C)=O)CC3)CC1,inactive: 28%
10,Cc1cc(C)c2oc(-c3ccc(C)c(NC(=O)/C=C/c4ccco4)c3)nc2c1,inactive: 18.3%
11,COc1ccc(CNC(=O)c2cc3c(=O)n(C)c4ccccc4c3n2C)c(OC)c1,inactive: 19.7%
12,O=C(COc1ccc(Cl)cc1)NCC(c1ccco1)S(=O)(=O)c1ccc(Cl)cc1 (centres undefined),inactive: -17.4%
13,Cc1nc(N2CCCC2)ncc1C(=O)N1CCN(c2ccccc2F)CC1,inactive: -5.71%
14,Cc1ccc(C(=O)n2nc(C)c(S(=O)(=O)N3CCOCC3)c2C)cc1C,inactive: -5.29%
15,CC1=C(C(=O)Nc2ccccc2)C(c2cc(Br)ccc2F)n2ncc(C(=O)Nc3ccccc3)c2N1 (centres undefined),inactive: -23.2%
16,COc1cccc(-c2nc(S(=O)(=O)c3ccccc3)c(N3CCC(C)CC3)o2)c1,inactive: 10.8%
17,CCS(=O)(=O)c1c(Nc2cc(C)ccc2C)sc(C(=O)c2ccccc2)c1N,inactive: -47.7%
18,Cc1ccc(NC(=O)c2nnn(CC(=O)Nc3ccc(C)c(Cl)c3)c2N)c(C)c1,inactive: -7.39%
19,O=C(Nc1ccccc1)OCC(CN1CCCCC1)OC(=O)Nc1ccccc1 (centres undefined),inactive: 16.8%
20,O=c1c2ccccc2nc(-c2ccc(Cl)cc2)n1CCCOc1ccccc1F,inactive: -2.91%
21,CCOc1cccc2sc(NC(=O)CS(=O)(=O)c3ccc(C)cc3)nc12,inactive: -14%
